The target of assay [1] is Tag1-LAG3. Description: HTRF LAG3/MHC-II; Ab log M -11.1175. A general note: In TR-FRET formats the signal depends on donor and acceptor labels being close together.
Assay [2] concerns the target Tag1-LAG3. Description: HTRF LAG3/MHC-II; Ab log M -11.7196.
For assay [3], the target named is Tag1-LAG3. Kind of assay: HTRF LAG3/MHC-II; Ab log M -6.30103.
The target in assay [4] is Tag1-LAG3. Kind of assay: HTRF LAG3/MHC-II; Ab log M -8.10721.
The target of assay [5] is Tag1-LAG3. Kind of assay: HTRF LAG3/MHC-II; Ab log M -9.31133.
Assay [6] deals with Tag1-LAG3. Kind of assay: HTRF LAG3/MHC-II; Ab log M -9.91339.

The source holds more than one record for some entries. Only these are listed. There may be further records. The records of an entry appear to be repeats (runs, samples, wells or individuals); one of them may be the mean.

Take “anti-human LAG3 antibody (Novoprotein #GMP-A092, Lot 0331158)”: the HTRF ratio was 9030, 9150, 8990, 9100, 9300, 8450 [columns of one line] with Tag1-LAG3 [1]; 9010, 8680, 8550, 9000, 9330, 8890 [columns of one line] with Tag1-LAG3 [2]; 2260, 2360, 2380, 2230, 2090, 2350 [columns of one line] in the assay with Tag1-LAG3 [3]; 3200, 3240, 3170, 3400, 3260, 3120 [columns of one line] with Tag1-LAG3 [4]; 7220, 7410, 7300, 7240, 7260, 7470 [columns of one line] with Tag1-LAG3 [5]; 8480, 8640, 8450, 8990, 8530, 8600 [columns of one line] in the assay with Tag1-LAG3 [6].

These data come from patent US20200369766A1 (LEIDOS, published 2020).
